Read counts are not given, so values of variants with three or more changes are uncertain.

The labels stand for the following.
B1: LINE1-mini (parent)
chain: GGCAGAGCUCAACACAGCGUGGCAAAGUGGCUGUGGCUAGACUGCC

In the data set the parent is B1. The experiment in a line: self-cleavage, relative activity (ratio to wild type); higher = more cleavage; in vitro, sequencing; the parent is a self-cleaving ribozyme.
For the variant GGCAGAGCUCAACACCGCGUGGCACACUUGCUGUGGCUAGACUGCC [A16C A25C G27C G29U], the self-cleavage is 0.81.

In the case of GGCAGAGCUCAACACCGCGUGGCAGAGACGAUUUGGCUAGAGUGCC [A16C A25G U28A G29C C31A G33U C42G], the self-cleavage was 0.01.

In the case of GGCAGAGCUCAACACCGCCUUGCAAAGUGGCUGUGGCUUGACUGCC [A16C G19C G21U A39U], the self-cleavage amounted to 0.42.

Take GGCAGAGCUCAACACCGCAUGGCACAGUGGCUGCGGCUAGACUGCC [A16C G19A A25C U34C]: the self-cleavage amounted to 0.04.

Turning to GGCAGAGCUCAACACCGCGUGGUAAAGUGGCUGGGGCUAGACUGCC [A16C C23U U34G], the self-cleavage came out at 0.

For the variant GGCAGAGCUCAACACCUCGUGGCAAAGUGGCAGUCGUUAGACUGCC [A16C G17U U32A G35C C37U], the self-cleavage came to 0.23.

GGCAGAGCUCAACACCGCGUGGCAACGUGGCUGUGGCUAGCCUGCC [A16C A26C A41C]: the self-cleavage was determined as 0.01.

On to GGCAGAGCUCAACAUAGCGCGGCAAAGUGGCUCUGGCUAGACUGCC [C15U U20C G33C], for which the self-cleavage came to 0.11.

Turning to GGCAGAGCUCAACACCGCGUGGCAAAGUGGCUGUGGAUACACUGCC [A16C C37A G40C], the self-cleavage turned out to be 0.03.

On to GGCAGAGCUCAACAUAGCGUGGCAAAGGGGCCGUGGCUAGCCUGCC [C15U U28G U32C A41C], for which the self-cleavage stood at 0.05.

With GGCAGAGCUCAACACCGAGUGGCAAAGUGGCUGUCUCUAGACUGCC [A16C C18A G35C G36U], the self-cleavage stood at 0.03.

Consider GGCAGAGCUCAACACCACAUGGCAAAGUGGCUGAGGCUCGACUGCA [A16C G17A G19A U34A A39C C46A], for which the self-cleavage came to 0.02.

Regarding GGCAGAGCUCAACACCGCGUGGCAACGUGGCUGUGGCCAGACUGCC [A16C A26C U38C], the self-cleavage was determined as 0.15.

As for GGCAGAGCUCAACAUAGCGUGGCAAAGCGUCUGUGGCUAGACUGCC [C15U U28C G30U], the self-cleavage was determined as 0.22.

GGCAGAGCUCAACACCGGGUGGCAAAGUUGGUGUGGCUAGACUGCC [A16C C18G G29U C31G]: the self-cleavage came to 0.

GGCAGAGCUCAACACCCCGUGGCAAAGUGGCUGUGUCUAGUCUGCC [A16C G17C G36U A41U]: the self-cleavage was 0.09.

Regarding GGCAGAGCUCAACACCGUGUGGCAAAGUGGGUGACGCUAGAAUGCC [A16C C18U C31G U34A G35C C42A], the self-cleavage was 0.02.

In the case of GGCAGAGCUCAACAUAGCGUGGCAAAGUGGCUGGGGCUAGACUGCU [C15U U34G C46U], the self-cleavage was determined as 0.01.

GGCAGAGCUCAACACCGCGUGGCUAAGUGGCAGUGGCUAGACUGCC [A16C A24U U32A]: the self-cleavage stood at 0.06.

Take GGCAGAGCUCAACAUAGCGUGGCAAAGUGGCUGAGCCUAGACUGCC [C15U U34A G36C]: the self-cleavage stood at 0.04.

For GGCAGAGCUCAACACCGACUGGCAAAGUGGCUGUGUCUAGACUGCC [A16C C18A G19C G36U], the self-cleavage stood at 0.07.

As to GGCAGAGCUCAACACCGUGUGGCAAAGUGGCUCUGGCUAGACUGCC [A16C C18U G33C], the self-cleavage turned out to be 0.02.

In the case of GGCAGAGCUCAACAUAGCGAGGCAAAGUGGCUGUGGCUACACUCCC [C15U U20A G40C G44C], the self-cleavage was 0.06.

As to GGCAGAGCUCAACACCGCUUGGCACAGUGGCUGUGGCUGGACUGCC [A16C G19U A25C A39G], the self-cleavage came out at 0.05.

GGCAGAGCUCAACACCGCGUGGCAAUGUGGCUAUGGUUAGACUGAC [A16C A26U G33A C37U C45A]: the self-cleavage was found to be 0.03.

Consider GGCAGAGCUCAACACCCCGUGCCAAACUCGCUGUGGCGAGACUGCC [A16C G17C G22C G27C G29C U38G], for which the self-cleavage was found to be 0.02.

As for GGCAGAGCUCAACACCGCUUGGCCAGGUGGCUGUGGCUAGACUUCC [A16C G19U A24C A26G G44U], the self-cleavage was 0.05.

Take GGCAGAGCUCAACACCGGGUGACCUAGUGGCUGUGGCCAGACUGCC [A16C C18G G22A A24C A25U U38C]: the self-cleavage is 0.05.

Regarding GGCAGAGCUCAACACCGAGUGGUGAAGUGGCUGUGGCUUGACUGAC [A16C C18A C23U A24G A39U C45A], the self-cleavage turned out to be 0.

Consider GGCAGAGCUCAACACCGCGUGGCCAAGUGGCUGUGGCUAGACUUCU [A16C A24C G44U C46U], for which the self-cleavage was 0.11.

Turning to GGCAGAGCUCAACACCGCAUGGCAAAGUGGCUGUGGCUACACUGCC [A16C G19A G40C], the self-cleavage is 0.22.

Consider GGCAGAGCUCAACACCGCGUGGCAAAGUGGCUGUGGCUAGACUGGU [A16C C45G C46U], for which the self-cleavage was 0.15.

With GGCAGAGCUCAACACCGCGUGGCCAAGUGGCUAUUGCUAGACUGCC [A16C A24C G33A G35U], the self-cleavage was 0.08.

Take GGCAGAGCUCAACACCGCGUGGCAAUGUGGUUGUGGCUAGACUGCC [A16C A26U C31U]: the self-cleavage was 0.01.

With GGCAGAGCUCAACACCGCGUGGCAAAGUGGGUGUGGCUAGAAUGCC [A16C C31G C42A], the self-cleavage is 0.

GGCAGAGCUCAACACCGCGUGGCAAAGUGGUUAGGGCUAGACUGCC [A16C C31U G33A U34G]: the self-cleavage stood at 0.

As to GGCAGAGCUCAACACCAGGUGGCAAAGUGGCUGUGGCUAAACUGCC [A16C G17A C18G G40A], the self-cleavage amounted to 0.06.

For GGCAGAGCUCAACACCGCGUGGCACAGAGGCUGUUGCUAGACUGCC [A16C A25C U28A G35U], the self-cleavage stood at 0.

GGCAGAGCUCAACACCGCGUGGCAAAGUGGUUGUGGCUAGAUUGCC [A16C C31U C42U]: the self-cleavage was determined as 0.

With GGCAGAGCUCAACACCGGGUGGCAAAGUGGCUGUGGGUAGUCUGCC [A16C C18G C37G A41U], the self-cleavage is 0.07.

Consider GGCAGAGCUCAACAUAGCGUGGCAAAGUGGCUGUGGCCAGCCUGCC [C15U U38C A41C], for which the self-cleavage turned out to be 0.17.

In the case of GGCAGAGCUCAACACCACGUGACACAGUGGCUUUGGCUAGUCUGCC [A16C G17A G22A A25C G33U A41U], the self-cleavage turned out to be 0.

For GGCAGAGCUCAACACCACGUGGCAAAGUGGCUGUGGCGAGACUGCC [A16C G17A U38G], the self-cleavage was determined as 0.03.

Turning to GGCAGAGCUCAACACCGGGUGGCAAAGUGGCUGUGGUUAGACUGCG [A16C C18G C37U C46G], the self-cleavage turned out to be 0.07.

Take GGCAGAGCUCAACACCGCAUGGCAAAGUGGCUGUGGCUAGGCUGCC [A16C G19A A41G]: the self-cleavage was 0.

For the variant GGCAGAGCUCAACACCGGGUGGCAAAGUGGCUGUGGCUAAACUGCC [A16C C18G G40A], the self-cleavage came to 0.03.

Take GGCAGAGCUCAACACCGCAUGGCAAUGUGGCUGUGGCUAGACUGCC [A16C G19A A26U]: the self-cleavage came to 0.02.

Regarding GGCAGAGCUCAACAUAGCGUGGCAAAGUGGCUGUGGCUAGACCGUC [C15U U43C C45U], the self-cleavage amounted to 0.13.

Consider GGCAGAGCUCAACACCGCAUGGCAAAGUGGCUGUGGGUAGACUGCC [A16C G19A C37G], for which the self-cleavage came to 0.02.

Consider GGCAGAGCUCAACACCACGUGGCAAAGUGGCUAUGGCUAGACUGCC [A16C G17A G33A], for which the self-cleavage turned out to be 0.02.

Turning to GGCAGAGCUCAACACCGAGAGGCAAAGUGGCUGUGGCUAAACUGCC [A16C C18A U20A G40A], the self-cleavage worked out at 0.

For GGCAGAGCUCAACAUAGCGUGGCAAAGCGGCUGUUGCGAGACUGCC [C15U U28C G35U U38G], the self-cleavage is 0.01.

For the variant GGCAGAGCUCAACACCACGUGGAAAAGUGGCUGUGGCUAGAUUGCC [A16C G17A C23A C42U], the self-cleavage amounted to 0.06.

Regarding GGCAGAGCUCAACACCACGUGGCAAAGUGGCUGAGGCUAGACUGCC [A16C G17A U34A], the self-cleavage is 0.02.

On to GGCAGAGCUCAACACCGCGUGGUAAAGUGGCUGUGGCCAGACUGUC [A16C C23U U38C C45U], for which the self-cleavage was found to be 0.08.

For the variant GGCAGAGCUCAACACCGAGUGGUAUAGUGGGUGUGGCUAGACUGCC [A16C C18A C23U A25U C31G], the self-cleavage was 0.05.

The values above are taken from the RNAGym collection of RNA variant scans (doi:10.7554/elife.90254).
